Test results reported in patent US20260132214A1 (JECHO LABORATORIES, published 2026).

B1: 59 anti-GPC3 scFv-Fc (Fc fusion)
VH: [no letters for about 100 residues]ASGRVTDAFDIWGQGTMVTVSS
VL: QAVLTQPSSLSASPGASASLTCTLRSGINVVPYRIYWYQQKPGSPPQFLLNYRSDSDNYQGSGVPSRFSGSKDTSANAGILLISGLQSEDEADYYCLTWHSDSWVFGGGTKLTVL
notes: scFv-Fc, human IgG1 constant regions
B2: P17 anti-GPC3 scFv-Fc (Fc fusion)
VH: [no letters for about 100 residues]EAPYSSGWSHYYYGMDVWGQGTTVTVSS
VL: QSVLTQPPSVSGAPGQRVTISCTGSSSGYDVHWYQQLPGRAPKLLIYGSNNRPSGVPDRFSGSNSGTSASLAITGLQAEDEADYYCQSYDSSLNAIFGGGTKLTVL
notes: as for B1

Key:
[1] = molecular target: T1, Glypican 3 Protein, Human, Recombinant (His Tag) (Sino Biological, Cat #10088-H08H) (human, UniProt P51654 25-559); assay: Octet QKe BLI, antibody on AHC probe, antigen in solution, 1:1 fit
T1 construct: Bought recombinant protein; also called Hu-GPC3 (10088-H08H); human GPC3; not shown: His tag

Cy-GPC3 (GP3-C5225) = Cy-GPC3 (GP3-C5225) (Cy (so in the source)); assay: as above

T1 sequence (P51654 25-559 limits assumed): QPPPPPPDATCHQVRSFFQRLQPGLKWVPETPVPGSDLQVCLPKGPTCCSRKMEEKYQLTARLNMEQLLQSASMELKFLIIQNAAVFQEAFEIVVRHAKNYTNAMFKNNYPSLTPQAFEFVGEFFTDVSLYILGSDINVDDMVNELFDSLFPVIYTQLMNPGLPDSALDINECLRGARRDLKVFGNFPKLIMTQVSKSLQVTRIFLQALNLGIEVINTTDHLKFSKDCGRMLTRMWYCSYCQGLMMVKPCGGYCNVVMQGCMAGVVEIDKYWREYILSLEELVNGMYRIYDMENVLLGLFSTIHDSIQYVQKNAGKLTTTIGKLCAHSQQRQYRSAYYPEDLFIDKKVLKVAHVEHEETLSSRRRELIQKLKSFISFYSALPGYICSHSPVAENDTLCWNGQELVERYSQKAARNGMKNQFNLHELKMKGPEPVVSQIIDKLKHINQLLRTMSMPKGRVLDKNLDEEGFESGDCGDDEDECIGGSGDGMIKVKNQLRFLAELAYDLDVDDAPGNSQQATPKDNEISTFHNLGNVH

Binder | Kd [1] | Kd (Cy-GPC3 (GP3-C5225))
B1 | 11.3 nM | 6.49 nM
B2 | 9.1 nM | 6.01 nM
